Test results reported in PubChem BioAssay AID686979 (National Center for Advancing Translational Sciences (NCATS), 2013).
Screen size: about 420,000 compounds; about 50,000 (12%) were called active. Inconclusive results, whose numbers are uncertain, are shown with a selection of clear calls. Calls follow the shape of the dose curve; as a rule, active = well fitted inhibition curve with a large enough effect; inconclusive = small, poorly fitted or top-dose-only effect; inactive = flat fitted curve, though single readings scatter. Potencies of inconclusive entries are left out as doubtful fits.

Experiment: qHTS for Inhibitors of human tyrosyl-DNA phosphodiesterase 1 (TDP1): qHTS in cells in presence of CPT; also: nearly all actives have a fitted effect of over 55% in size
Conditions: chicken DT40 Tdp1-/-;hTDP1 cells + 20 nM CPT, ATP luminescence, 48 h; activity change, negative = growth inhibition: at 46.2 µM (top of the series) unless noted
Outline: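 Chicken DT40 Tdp1-/- cells complemented with human TDP1, 400 cells/well, exposed to compounds plus 20 nM camptothecin for at least 48 h at 37 C; viability read as ATP content by CellTiter-Glo luminescence.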
% is scaled to controls: 0 for no effect and ±100 for the full control effect; potency is read from the fitted curve at half-maximal effect; tags tell the direction and shape of the fitted curve.

SMILES	Potency	activity change, negative = growth inhibition
Cc1cc(F)ccc1C(O)c1ncc(-c2ccccc2Cl)[nH]1 (stereo unspecified)	inconclusive [inhibitor, single point]	
Cc1ccccc1Oc1ccc2c(c1)[C@@H]1C[C@H](N(C)C(=O)c3ccc(C#N)cc3)[C@H]([C@H](C)O)C(=O)N1CC2	inconclusive [inhibitor, single point]	
CC(C)(C)c1csc(NC(=O)c2cccs2)n1	inactive	
CC1(C(=O)NS(=O)(=O)C2CC2)CCN(C(=O)CSc2ccccc2)C1 (stereo unspecified)	inactive	
Cc1ccc(C(=O)CSc2nc(C)cc(=O)[nH]2)cc1		inconclusive: -34.9% [inhibitor]
Cc1cc(C)nc(N/N=C/c2ccccc2OCc2cccc(Br)c2)n1	inconclusive [inhibitor, single point]	
Cc1ccc(NC(=O)c2ccc(=O)[nH]c2)cc1S(=O)(=O)N1CCCCC1	inactive	
CSCCC(C(=O)N(C)CC(=O)Nc1cccc(F)c1)N1C(=O)c2ccccc2C1=O (stereo unspecified)	inactive	
CCCCCCCN1N=C(C)C(C(=O)c2ccccc2)C1=O (stereo unspecified)	inconclusive [inhibitor, single point]	
Cc1ccc(C(=C2C3C=CC2C2C(=O)NC(=O)C32)c2ccc(C)cc2)cc1 (stereo unspecified)	inconclusive [inhibitor, partial curve]	
CCN=c1scc(-c2ccc(F)cc2)n1/N=C/c1ccccn1	inconclusive [inhibitor, single point]	
Cc1ccc(NC(=O)Nc2ccc(Cl)cc2)c(Br)c1	inconclusive [inhibitor, single point]	
COc1ccccc1/C=N/NC(=O)CNC(=O)c1ccccc1	inactive	
O=S(=O)(c1cccc2ccccc12)N1CCC2CC1c1cc(-c3ccc(F)cc3)ccc12 (stereo unspecified)	inconclusive [inhibitor, single point]	
CCNc1nc(NCC)nc(N/N=C/c2ccc(O)c(O)c2)n1	active: 23.1 µM	
Cc1sc2nc(CSCC(=O)NC3CCCCC3)[nH]c(=O)c2c1C	inconclusive [inhibitor, single point]	
COc1ccc(OC)c(S(=O)(=O)N2CCC(C(=O)NCCc3ccccc3)CC2)c1	inconclusive [inhibitor, single point]	
Cc1ccc(C)c(S(=O)(=O)Nc2ccc(C(=O)NCCCN3CCCC3=O)cc2)c1	inactive	
CCCCCN1CSC(=S)N(Cc2ccccc2)C1	active: 4.61 µM	
O=C(Cn1cc(S(=O)(=O)Cc2ccccc2Cl)c2ccccc21)NCc1ccccc1Cl	inconclusive [inhibitor, single point]	
COc1ccc(NS(=O)(=O)c2csc(C(=O)N3CCCC3)c2)c(OC)c1	inconclusive [inhibitor, single point]	
CC(C)(C)C(=O)c1cn(CC(=O)NCc2ccc3c(c2)OCO3)c2ccccc12	inconclusive [inhibitor, single point]	
CCOc1ccccc1Oc1cn[nH]c1-c1ccc(OC)cc1O	inconclusive [inhibitor, single point]	

SMILES	Potency	activity change, negative = growth inhibition
CCCC(=O)Nc1nc2c(C)c(Cl)ccc2s1	inconclusive [inhibitor, partial curve]	
OCc1ccccc1-c1nc(NCC2CC2)nc2ccsc12	inconclusive [inhibitor, partial curve, poor fit]	
Cc1cccc(NC(=O)c2ccc(S(=O)(=O)N(C)c3ccccc3)cc2)n1	inconclusive [inhibitor, single point]	
Cn1c(NCCCCO)nc2c1c(=O)n(Cc1ccc(Cl)cc1)c(=O)n2C	inconclusive [inhibitor, single point]	
COc1ccc(NC(=O)Cn2c(=O)n(CCCC(=O)NCc3ccccc3OC)c(=O)c3ccccc32)cc1Cl	inconclusive [inhibitor, single point]	
CCOc1cc(/C=C(\C#N)c2[nH]nc(N)c2C#N)ccc1O	inconclusive [inhibitor, single point]	
COc1cccc(NC(=O)CCS(=O)(=O)c2ccc3c(c2)oc(=O)n3C)c1	inactive	
COc1ccc(CCNC(=O)C(=O)NCCOc2ccccc2)cc1OC	inactive	
Cc1cc(CNC(=O)COC(=O)Cn2[nH]c(=O)c3ccccc3c2=O)cc(C)c1O	inconclusive [inhibitor, single point]	
COc1ccc(C)cc1NC(=O)C1CCC(CNc2c(N3CCOCC3)c(=O)c2=O)CC1 (stereo unspecified)	inactive	
COC(C/C=C/[C@@H](O)COCc1ccccc1)OC	inactive	
Cc1cccc(N2CCN(C(=O)C(Cc3ccccc3)n3cccc3)CC2)c1C (stereo unspecified)	active: 18.4 µM	
O=C(Nc1nnc(-c2ccc(Cl)cc2)o1)C1=COCCO1	inactive	
CN(C)c1nc(-c2cccc(C#N)c2)nc2ccccc12	inconclusive [inhibitor, single point]	
COC(=O)c1cc(=O)n(Cc2ccc(OC)c(OC)c2)c(=Nc2ccc(F)cc2)s1	active: 16.4 µM	
Clc1ccc(COn2nnc3ccccc32)c(Cl)c1	inconclusive [inhibitor, single point]	
COC(=O)c1c(NC(=O)C(=O)NCCCN2CCOCC2)sc2c1CCC2	inconclusive [inhibitor, single point]	
CN(C(=O)c1cccc(S(=O)(=O)NCc2ccccc2)c1)C1CCCCC1	inconclusive [inhibitor, single point]	
CN(Cc1ccccc1)C(=O)c1cccc(NC(=O)Cc2ccc(NC(=O)C3CCCN(C(=O)C4CCCCC4)C3)cc2)c1 (stereo unspecified)	active: 16.4 µM	
Nc1[nH]c(=S)nc2nc(-c3ccccc3)c(-c3ccccc3)nc12	inconclusive [inhibitor, single point]	
O=C(O)Cc1ccc(O)cc1	inactive	
CC1(C)CC(=O)C2=C(C1)OC1=C(C(=O)CC(C)(C)C1)C2c1ccc(O)cc1O	active: 2 µM	
CCN(CC)c1ccc(/C=N/Nc2nc(C)cc(C)n2)cc1	active: 23.1 µM	
